We go through 26 compounds from the antibiotic and cytotoxicity screens of Wong et al. (2023).

Molecules are shown by their SMILES. Some of the results follow.

For one experiment, the system named is HSkMC. The experiment can be described thus: cytotoxicity call (relative viability < 0.9). Particulars: 10 µM.
Another experiment concerns HepG2. The experiment can be described thus: cytotoxicity call (relative viability < 0.9). Particulars: 10 µM.
The subject of another experiment is S. aureus RN4220. The experiment is described as follows: growth inhibition call (relative growth <= 0.2). Conditions: 50 µM.

On to `Cc1noc(C)c1S(=O)(=O)Nc1ccc2c(c1)CC(=O)N([C@H](C)CO)C[C@@H](C)[C@H](CN(C)S(=O)(=O)c1ccc(Cl)cc1)O2`, for which the cytotoxicity call in the experiment with HSkMC and with HepG2 was “inactive” each time. The growth inhibition call in the experiment with S. aureus RN4220 is “inactive”.
`OC[C@H]1CC[C@@H]2O[C@H](CCc3ccc(C#CCc4ccccc4)cc3)[C@H](n3cc(-c4ccccc4)nn3)C[C@@H]2O1`: in the experiment on HSkMC, the cytotoxicity call was “active”. Moreover, the cytotoxicity call in the experiment on HepG2 was “inactive”. For the same compound, the growth inhibition call with S. aureus RN4220 is “inactive”.
Take `C[C@@H]1CN([C@@H](C)CO)C(=O)c2cc(NC(=O)Nc3cccc4ccccc34)ccc2O[C@H]1CN(C)C(=O)Nc1ccc2c(c1)OCO2`: the cytotoxicity call in the experiment with HSkMC and in the experiment with HepG2 was “inactive” throughout. In addition, the growth inhibition call in the experiment with S. aureus RN4220 is “inactive”.
As to `O=C(C[C@@H]1CC[C@@H]2NC[C@H](O)COC[C@H]2O1)NCCN1CCCCC1`, the cytotoxicity call in the experiment on HSkMC and in the experiment on HepG2 was “inactive” each time. In addition, in the experiment on S. aureus RN4220, the growth inhibition call was “inactive”.
In the case of `Cc1noc(C)c1NC(=O)Nc1ccc2c(c1)CC(=O)N([C@H](C)CO)C[C@H](C)[C@@H](CN(C)S(=O)(=O)c1cccs1)O2`, the cytotoxicity call in the experiment on HSkMC and with HepG2 was “inactive” throughout. For the same compound, the growth inhibition call in the experiment with S. aureus RN4220 is “inactive”.
With `C/C=C/c1ccc2c(c1)O[C@H](CN(C)S(=O)(=O)c1ccccc1OC)[C@H](C)CN([C@@H](C)CO)S2(=O)=O`, the cytotoxicity call in the experiment on HSkMC and with HepG2 was “inactive” throughout. The growth inhibition call in the experiment with S. aureus RN4220 is “inactive”.
As to `C[C@@H]1CCCCO[C@H](CN(C)CC2CCCCC2)[C@@H](C)CN([C@H](C)CO)C(=O)c2cc(NS(=O)(=O)c3cccs3)ccc2O1`, the cytotoxicity call in the experiment with HSkMC and with HepG2 was “inactive” in each case. For the same compound, in the experiment on S. aureus RN4220, the growth inhibition call was “inactive”.
Regarding `C[C@@H]1CN([C@@H](C)CO)C(=O)c2cc(NS(=O)(=O)c3cn(C)cn3)ccc2O[C@@H](C)CCCCO[C@@H]1CN(C)S(=O)(=O)c1ccc(F)cc1`, the cytotoxicity call with HSkMC and with HepG2 was “inactive” each time. Moreover, the growth inhibition call in the experiment with S. aureus RN4220 is “inactive”.
As for `O=C(C[C@@H]1CC[C@@H]2[C@H](COC[C@H](O)CN2S(=O)(=O)c2ccccc2)O1)NCc1ccc(-c2ccccc2)cc1`, the cytotoxicity call with HSkMC and in the experiment on HepG2 was “inactive” each time. Further, the growth inhibition call in the experiment on S. aureus RN4220 is “inactive”.
With `CN[C@@H]1[C@H](O[C@H]2[C@H](O[C@@H]3[C@@H](O)[C@H](O)[C@@H](NC(=N)N)[C@H](O)[C@H]3NC(=N)N)O[C@@H](C)[C@]2(O)C=O)O[C@@H](CO)[C@H](O)[C@H]1O`, the cytotoxicity call in the experiment with HSkMC and in the experiment on HepG2 was “inactive” each time. Also, the growth inhibition call in the experiment on S. aureus RN4220 was “inactive”.
In the case of `COc1cccc(-c2ccc3c(c2)O[C@@H](CN(C)C(=O)C2CC2)[C@H](C)CN([C@H](C)CO)S3(=O)=O)c1`, the cytotoxicity call with HSkMC and with HepG2 was “inactive” each time. Moreover, in the experiment on S. aureus RN4220, the growth inhibition call is “inactive”.
With `Cn1cnc(CCNC(=O)C[C@@H]2CC[C@H]3[C@@H](COC[C@@H](O)CN3C(=O)Nc3ccc(C(F)(F)F)cc3)O2)c1`, the cytotoxicity call with HSkMC and with HepG2 was “inactive” in each case. In the experiment on S. aureus RN4220, the growth inhibition call was “active”.
On to `C[C@H]1CN([C@@H](C)CO)C(=O)c2cccc(NC(=O)c3ccncc3)c2O[C@@H]1CN(C)C(=O)Nc1ccc2c(c1)OCO2`, for which the cytotoxicity call in the experiment with HSkMC and in the experiment on HepG2 was “inactive” each time. In addition, the growth inhibition call with S. aureus RN4220 is “inactive”.
`Cc1ccccc1S(=O)(=O)N1[C@@H]2c3cccc(=O)n3C[C@H]1[C@H](CO)[C@H]2C(=O)N1CCOCC1`: the cytotoxicity call with HSkMC and in the experiment with HepG2 was “inactive” in each case. The growth inhibition call in the experiment with S. aureus RN4220 was “inactive”.
Take `CN1C(C(=O)Nc2ccccn2)=C(O)c2sccc2S1(=O)=O`: the cytotoxicity call with HSkMC and in the experiment with HepG2 was “inactive” throughout. In the experiment on S. aureus RN4220, the growth inhibition call was “inactive”.
As for `Cc1noc(C)c1NC(=O)N(C)C[C@H]1OCCCC[C@@H](C)Oc2ccc(NC(=O)Cc3ccccc3)cc2C(=O)N([C@H](C)CO)C[C@@H]1C`, the cytotoxicity call in the experiment on HSkMC and in the experiment on HepG2 was “inactive” each time. Moreover, the growth inhibition call in the experiment with S. aureus RN4220 was “inactive”.
With `CC(C)(C)[S@](=O)N1Cc2cc(C(=O)N[C@@H]3CCN(Cc4ccccc4)C3)nc(-c3cccc(-c4cccnc4)c3)c2[C@@H]1CCO`, the cytotoxicity call with HSkMC and in the experiment on HepG2 was “inactive” in each case. Besides, the growth inhibition call in the experiment on S. aureus RN4220 is “inactive”.
On to `C[C@@H]1CCCCO[C@H](CN(C)Cc2ccccc2)[C@H](C)CN([C@H](C)CO)C(=O)c2cc(NS(=O)(=O)c3ccc(F)cc3)ccc2O1`, for which the cytotoxicity call in the experiment with HSkMC and in the experiment on HepG2 was “inactive” throughout. The growth inhibition call with S. aureus RN4220 was “inactive”.
As to `COCC(=O)Nc1ccc2c(c1)OC[C@H](C)N(C(=O)Cc1ccccn1)C[C@H](C)[C@@H](OC)CN(C)C2=O`, the cytotoxicity call in the experiment with HSkMC and in the experiment with HepG2 was “inactive” throughout. In the experiment on S. aureus RN4220, the growth inhibition call was “inactive”.
With `COc1cccc(S(=O)(=O)Nc2ccc3c(c2)[C@@H]2C[C@H](CC(=O)NCCc4ccccc4)O[C@H](CO)[C@@H]2O3)c1`, the cytotoxicity call with HSkMC and in the experiment on HepG2 was “inactive” throughout. For the same compound, the growth inhibition call with S. aureus RN4220 is “inactive”.
For the compound `O=C(O)CCC(=O)O`, the cytotoxicity call in the experiment on HSkMC and in the experiment with HepG2 was “inactive” in each case. Besides, the growth inhibition call with S. aureus RN4220 is “inactive”.
On to `Cc1ccccc1S(=O)(=O)N1C[C@@H](O)COC[C@H]2O[C@H](CC(=O)NCc3ccc(Cl)c(Cl)c3)CC[C@@H]21`, for which the cytotoxicity call in the experiment with HSkMC and in the experiment with HepG2 was “inactive” throughout. Besides, the growth inhibition call with S. aureus RN4220 was “inactive”.
With `COc1cc2c(cc1OC)[C@@]13ON=C(c4ccc(OCCOC(=O)NCCCCCC(=O)NO)cc4)[C@@H]1CCN3CC2`, the cytotoxicity call in the experiment on HSkMC and with HepG2 was “inactive” each time. Besides, the growth inhibition call in the experiment on S. aureus RN4220 is “inactive”.
As to `OC[C@H]1O[C@@H](n2cnc3c(N[C@H]4CCC[C@@H]4O)ncnc32)[C@H](O)[C@@H]1O`, the cytotoxicity call in the experiment with HSkMC and in the experiment with HepG2 was “inactive” throughout. Also, in the experiment on S. aureus RN4220, the growth inhibition call was “inactive”.
On to `C[C@H](CO)N1C[C@H](C)[C@@H](CN(C)Cc2ccc(-c3ccccc3)cc2)Oc2ccc(NC(=O)Nc3ccc(F)cc3)cc2CC1=O`, for which the cytotoxicity call in the experiment on HSkMC was “inactive”. Also, the cytotoxicity call with HepG2 is “active”. Moreover, the growth inhibition call in the experiment with S. aureus RN4220 was “inactive”.
As for `CS(=O)(=O)Nc1ccc2c(c1)[C@@H]1C[C@@H](CC(=O)NCc3ccc(-c4ccccc4)cc3)O[C@@H](CO)[C@@H]1O2`, in the experiment on HSkMC (human skeletal muscle cells), the cytotoxicity call was “active”. In addition, the cytotoxicity call with HepG2 is “inactive”. In addition, in the experiment on S. aureus RN4220, the growth inhibition call was “inactive”.
